Measured values published in US8114627 (Scripps Research, dated 2012).

Target: human α-thrombin (Diapharma) (human)
Assay: kinetic analysis of thrombin inhibition; the reference is desulfo-hirudin
Description: To characterize the efficacy of the expressed sulfo-hirudin as an anticoagulant, the kinetics of thrombin inhibition were determined using a fluorogenic enzyme assay based on the single progress curve method previously reported in the literature (Cha, "Tight-binding inhibitors—III. A new approach for the determination of competition between tight-binding inhibitors and substrates—inhibition of adenosine deaminase by coformycin," *Biochem Pharmacol* 25:2695-2702 (1976); Komatsu et al., "CX-397, a novel recombinant hirudin analog having a hybrid sequence of hirudin variants-1 and -3," *Biochem Biophys Res Commun* 196:773-779 (1993)). In this assay, 100 pM of either sulfo-hirudin or desulfo-hirudin was mixed with 50 µM fluorogenic substrate to which human α-thrombin was added to initiate the reaction.
The exact concentrations of hirudin and sulfo-hirudin were determined by titration against thrombin in a concentration range where 1:1 binding could be assumed. […] These thrombin inhibition kinetic constants derived from non-linear fitting of progress curves averaged over at least 3 readings with standard deviations reported are shown in the table below.

B1: sulfo-hirudin ([Leu1, Thr2]-hirudin with sulfotyrosine at position 63, expressed in E. coli) (other)
chain: LTYTDCTESGQNLCLCEGSNVCGQGNKCILGSDGEKNQCVTGEGTPKPQSHNDGDFEEIPEEYLQ
modifications: sulfotyrosine at position 63
notes: mature; It prints only the new residues Leu1 and Thr2; also called sulfated hirudin; genetically encoded sulfo-hirudin
  fold higher affinity than desulfo-hirudin: 10 fold
